In US11178870B2 (priority 2017, dated 2021):

Tests used:
Magnaporthe grisea = assay type: in vivo; details: for control value, Test A (blast on rice): Table 7, Test A
Phytophthora infestans = assay type: in vivo; details: Table 7, Test F
[1] = tested on: Colletotrichum orbiculare; details: 250 ppm sprayed (2.5 ml/pot) before inoculation; assessed 6 to 10 days after inoculation

Structure (SMILES)	control value, Test A (blast on rice) (Magnaporthe grisea)	control value, Test F (late blight on tomato) (Phytophthora infestans)	control value, Test H (anthracnose on cucumber) [1]	Test A control value (blast on rice) (Magnaporthe grisea; class of control value, Table 7)
CCn1c(-c2ccc(OC)cc2Cl)c(-n2cc(F)cn2)cc(Cl)c1=O [Compound 361]	H (H shows the control value more than 50%)	L (L shows the control value of 50% or less)	H (H shows the control value more than 50%)	–
O=c1ccc(-c2ccsc2Cl)c(-c2c(F)cccc2F)n1CC(F)F [Compound 366]	H (H shows the control value more than 50%)	L (L shows the control value of 50% or less)	H (H shows the control value more than 50%)	–
CCn1c(-c2ccccc2F)c(-n2cc(F)cn2)cc(Cl)c1=O [Compound 383]	–	–	–	H (H shows the control value more than 50%)
